Measurements taken from the supplement of paper PMC11876631.
± gives the standard deviation of the averaged measurements. Laboratory Escherichia coli strains with one amino-acid change in an essential protein, pooled on minimal glucose agar with carbenicillin or gentamicin at twice the control MIC (plus kanamycin and chloramphenicol for the plasmids), 48 h. Fold change of barcode share against drug-free plates; higher = less susceptible. Active = above 20 in both replicates (the paper's putatively resistant). '<' = one read or none on drug, '>' = one read or none on a drug-free plate. Shares are relative, so most strains fall below 1 when a few take over. Listed are strains with at least 15 reads on both drug-free plates, and hits; most hits rest on fewer reference reads. Replicate rank correlation about 0.5. Edits are read from barcodes.

B1: dxs; numbered along this chain (parent)
chain: MSFDIAKYPTLALVDSTQELRLLPKESLPKLCDELRRYLLDSVSRSSGHFASGLGTVELTVALHYVYNTPFDQLIWDVGHQAYPHKILTGRRDKIGTIRQKGGLHPFPWRGESEYDVLSVGHSSTSISAGIGIAVAAEKEGKNRRTVCVIGDGAITAGMAFEAMNHAGDIRPDMLVILNDNEMSISENVGALNNHLAQLLSGKLYSSLREGGKKVFSGVPPIKELLKRTEEHIKGMVVPGTLFEELGFNYIGPVDGHDVLGLITTLKNMRDLKGPQFLHIMTKKGRGYEPAEKDPITFHAVPKFDPSSGCLPKSSGGLPSYSKIFGDWLCETAAKDNKLMAITPAMREGSGMVEFSRKFPDRYFDVAIAEQHAVTFAAGLAIGGYKPIVAIYSTFLQRAYDQVLHDVAIQKLPVLFAIDRAGIVGADGQTHQGAFDLSYLRCIPEMVIMTPSDENECRQMLYTGYHYNDGPSAVRYPRGNAVGVELTPLEKLPIGKGIVKRRGEKLAILNFGTLMPEAAKVAESLNATLVDMRFVKPLDEALILEMAASHEALVTVEENAIMGGAGSGVNEVLMAHRKPVPVLNIGLPDFFIPQGTQEEMRAELGLDAAGMEAKIKAWLA
B2: valS; numbered along this chain (parent)
chain: MEKTYNPQDIEQPLYEHWEKQGYFKPNGDESQESFCIMIPPPNVTGSLHMGHAFQQTIMDTMIRYQRMQGKNTLWQVGTDHAGIATQMVVERKIAAEEGKTRHDYGREAFIDKIWEWKAESGGTITRQMRRLGNSVDWERERFTMDEGLSNAVKEVFVRLYKEDLIYRGKRLVNWDPKLRTAISDLEVENRESKGSMWHIRYPLADGAKTADGKDYLVVATTRPETLLGDTGVAVNPEDPRYKDLIGKYVILPLVNRRIPIVGDEHADMEKGTGCVKITPAHDFNDYEVGKRHALPMINILTFDGDIRESAQVFDTKGNESDVYSSEIPAEFQKLERFAARKAVVAAVDALGLLEEIKPHDLTVPYGDRGGVVIEPMLTDQWYVRADVLAKPAVEAVENGDIQFVPKQYENMYFSWMRDIQDWCISRQLWWGHRIPAWYDEAGNVYVGRNEDEVRKENNLGADVVLRQDEDVLDTWFSSALWTFSTLGWPENTDALRQFHPTSVMVSGFDIIFFWIARMIMMTMHFIKDENGKPQVPFHTVYMTGLIRDDEGQKMSKSKGNVIDPLDMVDGISLPELLEKRTGNMMQPQLADKIRKRTEKQFPNGIEPHGTDALRFTLAALASTGRDINWDMKRLEGYRNFCNKLWNASRFVLMNTEGQDCGFNGGEMTLSLADRWILAEFNQTIKAYREALDSFRFDIAAGILYEFTWNQFCDWYLELTKPVMNGGTEAELRGTRHTLVTVLEGLLRLAHPIIPFITETIWQRVKVLCGITADTIMLQPFPQYDASQVDEAALADTEWLKQAIVAVRNIRAEMNIAPGKPLELLLRGCSADAERRVNENRGFLQTLARLESITVLPADDKGPVSVTKIIDGAELLIPMAGLINKEDELARLAKEVAKIEGEISRIENKLANEGFVARAPEAVIAKEREKLEGYAEAKAKLIEQQAVIAAL
B3: fes; numbered along this chain (parent)
chain: MTALKVGSESWWQSKHGPEWQRLNDEMFEVTFWWRDPQGSEEYSTIKRVWVYITGVTDHHQNSQPQSMQRIAGTNVWQWTTQLNANWRGSYCFIPTERDDIFSVPSPDRLELREGWRKLLPQAIADPLNLQSWKGGRGHAVSALEMPQAPLQPGWDCPQAPEIPAKEIIWKSERLKKSRRVWIFTTGDATAEERPLAVLLDGEFWAQSMPVWPVLTSLTHRQQLPPAVYVLIDAIDTTHRAHELPCNADFWLAVQQELLPLVKAIAPFSDRADRTVVAGQSFGGLSALYAGLHWPERFGCVLSQSGSYWWPHRGGQQEGVLLEKLKAGEVSAEGLRIVLEAGIREPMIMRANQALYAQLHPIKESIFWRQVDGGHDALCWRGGLMQGLIDLWQPLFHDRS

Variants of: B1
Experiment: barcode share on antibiotic plates over drug-free plates; higher = less susceptible
Conditions: with Escherichia coli (laboratory strain); antibiotic: carbenicillin; 2× MIC (3.1 µg/mL)
Procedure: (§1)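 A pool of E. coli strains, each edited to carry one amino-acid change in an essential protein, was grown for 48 h on minimal glucose agar with or without antibiotic; strain barcodes were sequenced; mean of two replicates.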

| Variant | fold change of barcode share |
| --- | --- |
| M574Q | 0.331 ± 0.01 |
| M574W | 0.373 ± 0.19 |
| M574P | 0.442 ± 0.26 |
| M574A | 0.486 ± 0.08 |
| M574D | 0.307 ± 0.041 |
| L573P | 0.351 ± 0.022 |
| L573Q | 0.302 ± 0.0056 |
| L573D | 0.354 ± 0.082 |
| L573W | 0.316 ± 0.034 |
| L573A | 0.223 ± 0.084 |
| V389Q | 0.251 ± 0.18 |
| I443A | 1.28 ± 0.48 |
| I443Q | 0.352 ± 0.042 |
| I443D | 0.205 ± 0.024 |
| I443P | 0.382 ± 0.019 |
| I75A | 0.227 ± 0.094 |
| I448A | 0.309 ± 0.04 |
| I448W | 0.229 ± 0.09 |
| I448Q | 0.303 ± 0.024 |

Same assay, conditions: with Escherichia coli (laboratory strain); antibiotic: gentamicin; 2× MIC (MIC 0.45 µg/mL)

| Variant | fold change of barcode share |
| --- | --- |
| M574Q | 0.00399 ± 0.0022 |
| M574W | 0.00319 ± 0.0027 |
| M574P | < 0.00459 |
| M574A | 0.00496 ± 0.004 |
| M574D | 0.00892 ± 0.01 |
| L573P | < 0.00365 |
| L573Q | 0.005 ± 0.00033 |
| L573D | < 0.00467 |
| L573W | 0.00915 ± 0.0062 |
| L573A | 0.00617 ± 0.0021 |
| V389Q | < 0.0181 |
| I443A | 0.117 ± 0.15 |
| I443Q | 0.0093 ± 0.011 |
| I443W | > 88.1 [active] |
| I443P | 0.00825 ± 0.0073 |
| I75A | 0.016 ± 0.013 |
| I448A | < 0.019 |
| I448W | 0.244 ± 0.33 |
| I448Q | < 0.0113 |

Variants of: B2
Experiment: as above
Conditions: with Escherichia coli (laboratory strain); antibiotic: carbenicillin; 2× MIC (3.1 µg/mL)
Procedure: as §1

| Variant | fold change of barcode share |
| --- | --- |
| V652D | 0.431 ± 0.23 |
| V652Q | 0.299 ± 0.14 |
| V652A | 0.246 ± 0.076 |
| V652P | 0.458 ± 0.053 |
| F681Q | 0.337 ± 0.037 |
| F681W | 0.482 ± 0.018 |
| F681D | 0.36 ± 0.044 |
| F681A | 0.36 ± 0.16 |
| I757Q | 0.558 ± 0.055 |
| I757A | 0.281 ± 0.2 |
| I757W | 0.286 ± 0.23 |
| M505P | 0.629 ± 0.22 |
| M505Q | 0.278 ± 0.079 |
| M505A | 0.314 ± 0.063 |
| M505D | 0.35 ± 0.21 |
| L678W | 0.3141 ± 0.0027 |
| L678Q | 0.379 ± 0.1 |
| L678D | 0.288 ± 0.14 |
| L678P | 0.331 ± 0.14 |
| L678A | 0.347 ± 0.059 |
| V506D | 0.468 ± 0.2 |
| V506A | 0.287 ± 0.04 |
| V506W | 0.497 ± 0.086 |
| V506Q | 0.34 ± 0.0078 |
| V506P | 0.51 ± 0.25 |

Same assay, conditions: with Escherichia coli (laboratory strain); antibiotic: gentamicin; 2× MIC (MIC 0.45 µg/mL)

| Variant | fold change of barcode share |
| --- | --- |
| V652D | < 0.00685 |
| V652Q | 0.0112 ± 0.0044 |
| V652A | < 0.00555 |
| V652P | < 0.00677 |
| F681Q | 0.00489 ± 0.0032 |
| F681W | 0.00835 ± 0.0026 |
| F681D | 0.00571 ± 0.0065 |
| F681A | 0.00266 ± 0.0015 |
| I757Q | 0.0108 ± 0.0012 |
| I757A | < 0.00633 |
| M505Q | 0.0057 ± 0.0041 |
| M505A | 0.00569 ± 0.0065 |
| M505D | 0.00705 ± 0.0067 |
| L678W | 0.00751 ± 0.008 |
| L678Q | 0.00424 ± 0.0023 |
| L678D | 0.00715 ± 0.003 |
| L678P | 0.00639 ± 0.0038 |
| L678A | 0.00737 ± 0.0057 |
| V506A | < 0.00381 |
| V506Q | 0.0169 ± 0.018 |
| V506P | < 0.002 |

Variants of: B3
Experiment: as above
Conditions: with Escherichia coli (laboratory strain); antibiotic: carbenicillin; 2× MIC (3.1 µg/mL)
Procedure: as §1

| Variant | fold change of barcode share |
| --- | --- |
| V338Q | 0.663 ± 0.43 |
| V338D | 0.758 ± 0.19 |
| V338W | 0.999 ± 0.44 |
| L302W | > 83.1 [active] |
| L302A | 1.89 ± 0.45 |
| L302D | 4.24 ± 0.91 |
| L302P | > 55.8 [active] |
| L302Q | 1.97 ± 0.073 |
| V230W | 1.77 ± 0.23 |
| V230A | 0.883 ± 0.17 |
| V230D | > 36.2 [active] |
| I183Q | 1.01 ± 0.35 |

Same assay, conditions: with Escherichia coli (laboratory strain); antibiotic: gentamicin; 2× MIC (MIC 0.45 µg/mL)

| Variant | fold change of barcode share |
| --- | --- |
| V338Q | 0.111 ± 0.15 |
| V338D | 0.0681 ± 0.063 |
| V338W | 0.0432 ± 0.047 |
| L302A | 0.0589 ± 0.067 |
| L302Q | 0.105 ± 0.12 |
| V230Q | 0.138 ± 0.11 |
| V230W | 0.174 ± 0.15 |
| V230A | 0.032 ± 0.038 |
| I183Q | 0.121 ± 0.15 |
